Data from the supplement of paper PMC9174493.
Counter-ions that a name gives are not always drawn. The list shows a part of the results. Single values of this set are uncertain. Values with irradiation are relative to irradiated vehicle.

These compounds were tested on A549-Dual (assay: ISRE reporter (Lucia luciferase) activity, viability-corrected, relative to vehicle (fold change vs vehicle); higher = more activation of STING-IRF / NF-kB immune response reporter). Conditions: 1 µM; irradiation: none.
In the case of `CCC(=O)OCC(=O)C1(OC(=O)CC)C(C)CC2C3CCC4=CC(=O)C=CC4(C)C3(Cl)C(O)CC21C` (stereo unspecified) [Beclomethasone dipropionate], the ISRE reporter is reported as 0.157. For `CC(=O)Nc1ccc(OC(=O)c2ccccc2OC(C)=O)cc1` [Benorylate], the ISRE reporter was 0.692. Compound `Nc1ccccc1NC(=O)c1ccc(CNC(=O)OCc2cccnc2)cc1` [Entinostat (MS-275)] has an ISRE reporter of 0.79. `COc1cc(N2CCC(N3CCN(C)CC3)CC2)ccc1Nc1ncc(Cl)c(Nc2ccccc2P(C)(C)=O)n1` showed an ISRE reporter of 1.04. With `Cc1c(-c2ccc(-c3ccccc3F)cc2)nc2ccc(F)cc2c1C(=O)O` [Brequinar] the ISRE reporter was 2. `CCC1/C=C(\C)CC(C)CC(OC)C2OC(O)(C(=O)C(=O)N3CCCCC3C(=O)OC(/C(C)=C/C3CCC(Cl)C(OC)C3)C(C)C(O)CC1=O)C(C)CC2OC` (stereo unspecified) [Pimecrolimus] was tested, and the ISRE reporter was 1.53. `COC(=O)/C=C/C(=O)OC` [Dimethyl Fumarate] was tested, and the ISRE reporter was 0.771. Work on `Cc1cc(Nc2ncc(Cl)c(Nc3ccccc3S(=O)(=O)C(C)C)n2)c(OC(C)C)cc1C1CCNCC1` [Ceritinib (LDK378)] yielded an ISRE reporter of 1.07. Compound `Nc1nc(Cl)nc2c1ncn2C1CC(O)C(CO)O1` (stereo unspecified) [Cladribine] has an ISRE reporter of 1.96. In the case of `CC12CCC(=O)C=C1CCC1C2C(O)CC2(C)C1CCC2(O)C(=O)CO` (stereo unspecified) [Hydrocortisone], the ISRE reporter is reported as 0.311. For `Cc1coc2c1C(=O)C(=O)c1c-2ccc2c(C)cccc12` [Tanshinone I], the ISRE reporter was 0.639.
